Measured values taken from patent US20240123068A1 (KITE PHARMA, published 2024).

T1: Human CD19, wild-type full-length protein expressed on cells (human, UniProt P15391 20-556)
T1 construct: also called WT CD19; CD19 wild type protein
T1 sequence: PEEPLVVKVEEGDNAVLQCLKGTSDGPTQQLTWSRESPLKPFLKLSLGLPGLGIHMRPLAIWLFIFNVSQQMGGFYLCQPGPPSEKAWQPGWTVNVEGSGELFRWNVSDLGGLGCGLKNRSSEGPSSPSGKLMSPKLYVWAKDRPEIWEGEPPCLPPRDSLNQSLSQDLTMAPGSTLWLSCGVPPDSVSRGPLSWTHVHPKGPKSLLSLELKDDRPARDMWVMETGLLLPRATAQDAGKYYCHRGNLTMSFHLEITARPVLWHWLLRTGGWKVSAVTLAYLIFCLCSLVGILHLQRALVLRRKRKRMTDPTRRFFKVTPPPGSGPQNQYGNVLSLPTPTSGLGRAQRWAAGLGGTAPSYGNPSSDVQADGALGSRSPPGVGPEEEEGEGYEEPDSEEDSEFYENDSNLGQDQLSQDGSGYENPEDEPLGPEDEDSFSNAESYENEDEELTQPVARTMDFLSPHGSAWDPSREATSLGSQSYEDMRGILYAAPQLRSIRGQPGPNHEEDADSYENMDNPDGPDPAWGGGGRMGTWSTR


Target: T1, Human CD19, wild-type full-length …
Assay: scFv clone screen on NALM6 cells with and without CD19

Row | binding result | Binder
1 | binds | CD19 A4 scFv (P2) (scFv, also called 43; clone 43) scFv: [about 100 residues left out here]SWTFGQGTKVEIKGGGGSGGGGSGGGGSQVQLVQSGAEVKKPGSSVKVSCKASGGTFSNYYISWVRQAPGQGLEWMGGIIPLFGTTNYAQKFQGRVTITADESTSTAYMELSSLRSEDTAVYYCARGTWYAGDIWGQGTLVTVSS
2 | binds | CD19 E4 scFv (P3) (scFv, also called 44; clone 44) scFv: [about 100 residues left out here]VTFGQGTKVEIKGGGGSGGGGSGGGGSQVQLVQSGAEVKKPGSSVKVSCKASGGTFSNYAINWVRQAPGQGLEWMGRIVPLLGIANYAQKFQGRVTITADESTSTAYMELSSLRSEDTAVYYCAREHIAYRPTSAGYYYYMDIWGQGTLVTVSS
